About 64,000 (15%) of roughly 420,000 compounds were called active. This list was built around the results that the source calls inconclusive (neither active nor inactive); the mix of calls is not that of the screen. Calls come from the whole dose curve; as a rule, active = well fitted inhibition curve with a large enough effect; inconclusive = small, poorly fitted or top-dose-only effect; inactive = flat fitted curve, though single readings scatter. Potencies of inconclusive entries are left out as doubtful fits.
Assay: qHTS for Inhibitors of human tyrosyl-DNA phosphodiesterase 1 (TDP1): qHTS in cells in absence of CPT; note: nearly all actives have a fitted effect of over 55% in size
Conditions: DT40 Tdp1-/- hTDP1 cells, no CPT, ATP luminescence, 48 h; activity change, negative = growth inhibition: at 46.2 µM (top of the series) unless noted
Procedure, shortened: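 Cells were dispensed at 400 per well, compounds added by pin tool, plates incubated ≥48 hr at 37 °C, then CellTiter-Glo added for 30 min at room temperature before luminescence reading. Line: DT40 Tdp1-/- complemented with hTDP1; camptothecin omitted.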
% is set by controls: 0 for no effect and ±100 for the full control effect; potency is the fitted concentration of half-maximal effect; tags give direction and shape of the fitted curve.

SMILES | activity change, negative = growth inhibition | Potency
O=C(CSc1ccc(F)cc1)Nc1ccc(C2SCCS2)cc1 | inconclusive: -31.2% [inhibitor] | –
Cc1cc2c(cc1C)NC(CC(=O)Nc1cccc(C)c1C)C(=O)N2 (stereo unspecified) | – | active: 16.4 µM
CCS(=O)(=O)c1c(S(=O)(=O)CC)c2cc(C(C)(C)C)ccn2c1C(=O)c1ccc(F)cc1 | – | inconclusive [inhibitor, single point]
CC1(C)OC(=O)C2=C(C[C@@H](CCc3ccccc3)O[C@H]2CCc2cccc(Cl)c2)O1 | – | inconclusive [inhibitor, partial curve]
O=C(NCCN1CCC(n2c(=O)[nH]c3ccccc32)CC1)c1cccc(Cl)c1 | – | inconclusive [inhibitor, single point]
CCN(CC)c1ccc(NC(=S)Nc2ccc(F)cc2)cc1 | – | active: 23.1 µM
N#CC(c1ccc(O)cc1)N1CCOCC1 (stereo unspecified) | – | inactive
CC(Nc1ncnc2c1cnn2-c1cccc(Cl)c1)c1ccccc1 (stereo unspecified) | – | inconclusive [inhibitor, single point]
CCCCSc1ncnc2c1ncn2C1CCCCO1 (stereo unspecified) | inconclusive: -35.1% [inhibitor] | –
CCOC(=O)C1=C(O)/C(=C\c2cccc(OC)c2)N=C1C | – | inconclusive [inhibitor, single point]
Cc1ccc(NC(=O)c2ccc(Cl)c(S(=O)(=O)N3CCc4ccccc43)c2)nc1 | – | active: 25.9 µM
COc1ccc(C(=O)OCC(=O)c2ccc3c(c2)NC(=O)CO3)cc1[N+](=O)[O-] | – | inactive
CCOc1ccc(S(=O)(=O)N2CCC(C(=O)NCc3ccco3)CC2)cc1 | – | inactive
COCCN1C(=O)N[C@@H](c2cccs2)C(C(=O)OC)=C1C | – | inactive
Cc1cc(/C=C2\NC(=O)N(Cc3ccc(Cl)cc3)C2=O)c(C)n1C | – | inconclusive [inhibitor, single point]
Cc1c(Cl)cccc1NC(=O)CCS(=O)(=O)c1cccc2nsnc12 | – | inconclusive [inhibitor, single point]
CN(CCOc1ccc(Cl)cc1)C(=O)CN1C(=O)NC2(CCCC2)C1=O | – | inconclusive [inhibitor, single point]
CCc1ccccc1NC(=O)CN(c1ccc(OC)cc1OC)S(=O)(=O)c1ccccc1 | – | inconclusive [inhibitor, single point]
O=Cc1cc(CCC(=O)O)ccc1O | inconclusive: -33.3% [inhibitor] | –
Cc1ccc(NC(=O)CSc2nnc(CCC(=O)O)c(=O)[nH]2)cc1 | – | inactive
O=C(Oc1ccccc1)N1CCC[C@@]2(CCN(c3ncccn3)C2)C1 | – | inactive

From PubChem BioAssay AID686978 (National Center for Advancing Translational Sciences (NCATS), 2013)
